Test results taken from PMC6602471.
The list shows a part of the results. At the low end of the ranking, values are background and their order means little.

Target: T1, ELK1 (UniProt P19419)
T1 sequence: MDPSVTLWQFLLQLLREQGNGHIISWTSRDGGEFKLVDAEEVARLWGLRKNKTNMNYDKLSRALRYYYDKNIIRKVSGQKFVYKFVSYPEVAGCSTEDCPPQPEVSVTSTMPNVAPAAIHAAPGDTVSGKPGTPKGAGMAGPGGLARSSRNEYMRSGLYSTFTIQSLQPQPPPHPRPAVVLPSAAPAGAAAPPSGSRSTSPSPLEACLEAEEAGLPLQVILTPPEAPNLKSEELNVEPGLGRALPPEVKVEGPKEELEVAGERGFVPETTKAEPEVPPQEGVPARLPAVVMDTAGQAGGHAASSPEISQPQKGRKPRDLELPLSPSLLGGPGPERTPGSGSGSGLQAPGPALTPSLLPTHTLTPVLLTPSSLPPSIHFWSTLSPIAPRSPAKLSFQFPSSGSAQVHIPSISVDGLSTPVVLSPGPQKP
Test: custom PBM
Settings: custom protein-binding microarray; buffer, salt, pH and temperature not stated; high values mean tight binding; double strand, one strand shown

**Q.** Which binding signal (log fluorescence intensity) does the source give for “ACCGGCTACCAGCTCCACCCACTTCAGGCCTTGTAGGTCTTGATTCGCTTGACGCTGCTG” here?
**A.** 8.77

**Q.** For “GCTGCTTCGGTGCATACCCCACCGGATGTGACCCCGGTCTTGATTCGCTTGACGCTGCTG”, which binding signal (log fluorescence intensity) is on record?
**A.** 10.2

**Q.** Which binding signal (log fluorescence intensity) does the source give for “CAGCATAGGACTTCTTCCTTGAAGCAATTGATAACCGTCTTGATTCGCTTGACGCTGCTG” here?
**A.** 9.13

**Q.** For “TGTCAGGTAAGGGAATGTAGATCACGTGAATGAAAAGTCTTGATTCGCTTGACGCTGCTG”, which binding signal (log fluorescence intensity) is on record?
**A.** 8.9

**Q.** How did the binding signal (log fluorescence intensity) turn out when “GAATAATTTCTGCCCTTATTCGCACGTGCCATAACAGTCTTGATTCGCTTGACGCTGCTG” was run?
**A.** 8.99

**Q.** For “CGGAAGTGTCGTAAACGTCGGATATCCGGTTCTTCCGTCTTGATTCGCTTGACGCTGCTG”, which binding signal (log fluorescence intensity) is on record?
**A.** 13

**Q.** With “TCTCGGGTAAGGGAATGTAGATCACGTGAATGAAAAGTCTTGATTCGCTTGACGCTGCTG” as the sequence, how does the binding signal (log fluorescence intensity) read?
**A.** 8.95

**Q.** “TACTGACTTATATATGCGAATGCACACGAATAGACCGTCTTGATTCGCTTGACGCTGCTG” was tested. Which binding signal (log fluorescence intensity) did it give?
**A.** 8.86

**Q.** How did the binding signal (log fluorescence intensity) turn out when “TAAACGGAAGACGGTTGTGGTAGTTCCGGGTATTAAGTCTTGATTCGCTTGACGCTGCTG” was run?
**A.** 12.5

**Q.** How did the binding signal (log fluorescence intensity) turn out when “GTGTATAGGATCCTATCCAACACACGTGTTAAAATGGTCTTGATTCGCTTGACGCTGCTG” was run?
**A.** 8.82

**Q.** “TACGGCTACCAGCTCCACCCACTTCAGGCCTTGTAGGTCTTGATTCGCTTGACGCTGCTG” was tested. Which binding signal (log fluorescence intensity) did it give?
**A.** 8.75

**Q.** “CACAATTTTTACAGTTATGTAGCACGCGTAACTCCTGTCTTGATTCGCTTGACGCTGCTG” was tested. Which binding signal (log fluorescence intensity) did it give?
**A.** 8.94

**Q.** “GGAAGAAGGCCCAGGGTAACACCGGAAGTGGGCTTAGTCTTGATTCGCTTGACGCTGCTG” was tested. Which binding signal (log fluorescence intensity) did it give?
**A.** 10.9

**Q.** With “TACTGACTCATATATGCGAATGCACATGAATAGACCGTCTTGATTCGCTTGACGCTGCTG” as the sequence, how does the binding signal (log fluorescence intensity) read?
**A.** 8.97

**Q.** Which binding signal (log fluorescence intensity) does the source give for “CGGAAGTGTCGTAAACGCCGGATATCCGGTTCTTCTGTCTTGATTCGCTTGACGCTGCTG” here?
**A.** 13.3

**Q.** With “CGGAAGTGTCGTAAACGTCGGATATCCGGCTCTTCTGTCTTGATTCGCTTGACGCTGCTG” as the sequence, how does the binding signal (log fluorescence intensity) read?
**A.** 12.4

**Q.** “CGGAAGTGTCATAAACGTCGGATATCCGGTTCTTCTGTCTTGATTCGCTTGACGCTGCTG” was tested. Which binding signal (log fluorescence intensity) did it give?
**A.** 12.1

**Q.** How did the binding signal (log fluorescence intensity) turn out when “CAGCATAGGACTTCTTCTCTGAAGCAATTGATAACCGTCTTGATTCGCTTGACGCTGCTG” was run?
**A.** 8.79

**Q.** Which binding signal (log fluorescence intensity) does the source give for “GCTGCTGCGGTGCAAACCCCACCGGATGTGACCCCGGTCTTGATTCGCTTGACGCTGCTG” here?
**A.** 10.2

**Q.** Which binding signal (log fluorescence intensity) does the source give for “TACTGACTTATATATGCGAATGCACATGAATAGAGCGTCTTGATTCGCTTGACGCTGCTG” here?
**A.** 8.88

**Q.** For “TCCGGCTACTAGCTCCACCCACTTCAGGCCTTGTAGGTCTTGATTCGCTTGACGCTGCTG”, which binding signal (log fluorescence intensity) is on record?
**A.** 8.93

**Q.** With “GTGTATAGGATCCCGTCCAACACACGTGTTAAAATGGTCTTGATTCGCTTGACGCTGCTG” as the sequence, how does the binding signal (log fluorescence intensity) read?
**A.** 8.8

**Q.** Which binding signal (log fluorescence intensity) does the source give for “GATTAATTTCTGCCCTTATTCGCACGTGCCATGACAGTCTTGATTCGCTTGACGCTGCTG” here?
**A.** 8.86

**Q.** With “CGGAAGTGTCGTAAACATCGGATATCCGGTTCTTCTGTCTTGATTCGCTTGACGCTGCTG” as the sequence, how does the binding signal (log fluorescence intensity) read?
**A.** 12.6

**Q.** “TGTCGGGTAAGGGAATGTAGATCACGTGAATGGAAAGTCTTGATTCGCTTGACGCTGCTG” was tested. Which binding signal (log fluorescence intensity) did it give?
**A.** 8.81

**Q.** Which binding signal (log fluorescence intensity) does the source give for “GATTAATTTCTTCCCTTATTCGCACGTGCCATAACAGTCTTGATTCGCTTGACGCTGCTG” here?
**A.** 9.19

**Q.** With “TGTCGGGTAAGGGAATGTAGATAACGTGAATGAAAAGTCTTGATTCGCTTGACGCTGCTG” as the sequence, how does the binding signal (log fluorescence intensity) read?
**A.** 8.93

**Q.** “CGGGAGTGTCGTAAACGTCGGATATCCGGTTCTTCTGTCTTGATTCGCTTGACGCTGCTG” was tested. Which binding signal (log fluorescence intensity) did it give?
**A.** 12.1

**Q.** “TACTGACTTATATATGCGAATGGACATGAATAGACCGTCTTGATTCGCTTGACGCTGCTG” was tested. Which binding signal (log fluorescence intensity) did it give?
**A.** 8.79

**Q.** “TGTCGGGTAAGGGAATGTAAATCACGTGAATGAAAAGTCTTGATTCGCTTGACGCTGCTG” was tested. Which binding signal (log fluorescence intensity) did it give?
**A.** 8.82

**Q.** How did the binding signal (log fluorescence intensity) turn out when “TGTCGGGTAAGGGAATATAGATCACGTGAATGAAAAGTCTTGATTCGCTTGACGCTGCTG” was run?
**A.** 8.88

**Q.** “CTGGGACATGACCCAACTCTGCCACGTGGGTCGTTTGTCTTGATTCGCTTGACGCTGCTG” was tested. Which binding signal (log fluorescence intensity) did it give?
**A.** 8.96

**Q.** For “TCCGGCTACCAGCTCCACCCACTTAAGGCCTTGTAGGTCTTGATTCGCTTGACGCTGCTG”, which binding signal (log fluorescence intensity) is on record?
**A.** 8.77

**Q.** For “TAAAGGGAAGACGGTTGTTGTAGTTCCGGGTATTAAGTCTTGATTCGCTTGACGCTGCTG”, which binding signal (log fluorescence intensity) is on record?
**A.** 11.4

**Q.** For “GTGTATAGGATACCATCCAACACACGTGTTAAAATGGTCTTGATTCGCTTGACGCTGCTG”, which binding signal (log fluorescence intensity) is on record?
**A.** 8.88

**Q.** For “CTGGGACTTGACCCAACTCTGCCACGTGGCTCGTTTGTCTTGATTCGCTTGACGCTGCTG”, which binding signal (log fluorescence intensity) is on record?
**A.** 9.01

**Q.** How did the binding signal (log fluorescence intensity) turn out when “TAAAGGGAAGACGGTTGTGGCAGTTCCGGGTATTAAGTCTTGATTCGCTTGACGCTGCTG” was run?
**A.** 11.2

**Q.** With “CACAATTTTTACAGTAATGTAGCACTCGTAACTCCTGTCTTGATTCGCTTGACGCTGCTG” as the sequence, how does the binding signal (log fluorescence intensity) read?
**A.** 8.7

**Q.** “CGGAAGTGTCGTAAACGTCGGATATCCGGTTCTTCGGTCTTGATTCGCTTGACGCTGCTG” was tested. Which binding signal (log fluorescence intensity) did it give?
**A.** 12.4

**Q.** With “TGACGGGTAAGGGAATGTAGATCACGTGAATGAAAAGTCTTGATTCGCTTGACGCTGCTG” as the sequence, how does the binding signal (log fluorescence intensity) read?
**A.** 8.82
